Among the data in paper PMC12136788 are binding signal values, retold here.

Sequences and labels used below:
T1: UNK ZnF1-3 (human, UniProt Q9C0B0 31-174)
T1 sequence: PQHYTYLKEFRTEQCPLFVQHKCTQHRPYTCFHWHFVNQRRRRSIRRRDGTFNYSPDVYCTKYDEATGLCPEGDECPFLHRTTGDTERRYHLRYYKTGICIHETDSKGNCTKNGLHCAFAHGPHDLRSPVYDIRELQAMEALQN

B1: 123313163_123334286_332_3pUTR_ENSG00000136861_ENST00000349780|human|control|control (ssRNA)
RNA: GGGAGUUCUACAGUCCGACGAUCUUCAAUUCAGUGAUUUGAUUUUCAAAGUCCUUCAUGUUCCGUGCUCUGGUGGGAGACACUGUUUCUUCUGACACAUUUGGGAGCAGACCAUUUCCCAACCCAGCAUUGGGGUUGAUGCCACAACAGAGGAUUGAGCAUCA
B2: chr7:888175:888176:+_ENSG00000164828_ENST00000456758|hu_hu|motif|central (ssRNA)
RNA: GGGAGUUCUACAGUCCGACGAUCUUUGUAAUUUUCUGAUUCAUAACUGAGCUUCAUUAAAACCACUUGAAAAAGUUGAACGGAAAAUGAUGAAAAAGAUGAUGCAGUGUAUCUGGCCAGCCACAAAAUCCUAUUCACGUAGAACAACAGAGGAUUGAGCAUCA
B3: chr3:10015032:10015033:+_ENSMUSG00000027533_ENSMUST00000029046|mus_mus|mus_mus_mus_hu_True|38_88 (ssRNA)
RNA: GGGAGUUCUACAGUCCGACGAUCGUUUUUACCAUCACAAGUGAUGAUACAGUCUGGCUUGGCCAUUGCGCCCAUUUUUCGCAAAGCUAUUCCCACUCCUAGCUCUUUCAUGUAUUCAUCAAAGCCUUUGCUGUCCACCAGGCGCAACAGAGGAUUGAGCAUCA
B4: chr4:144460044:144460045:+_ENSG00000153147_ENST00000283131|hu_mus|hu_hu_hu_mus_False|58_88 (ssRNA)
RNA: GGGAGUUCUACAGUCCGACGAUCACGGUCCAUAGCCUGAAGAUCAACUUGGGGAUUCCAAUCUGAGUCAUAUAAAAUUACUACAUCAGCAGUUGCAAGAUUGAUGCCCAGACCACCAGCACGUGUGCUUAGCAUAAAUACAAACAACAGAGGAUUGAGCAUCA
B5: 17015042_17015162_1969_CDS_ENSMUSG00000059273_ENSMUST00000098789|mouse|control|control (ssRNA)
RNA: GGGAGUUCUACAGUCCGACGAUCUCCAGAAUGUGGGGAGUCUCCAGGACCAUAGGGCAUCAUUGGGGGGCCACCAGGACCCAUGGGAGGGCCAGGGUUCAUGCCAGGACCCAUUGGCAUGUCAGGAUGCAUGUCAGGGUGCAUCAACAGAGGAUUGAGCAUCA
B6: 112724657_112724777_946_3pUTR_ENSG00000108061_ENST00000369452|human|control|control (ssRNA)
RNA: GGGAGUUCUACAGUCCGACGAUCUAAGCAUGCUGAGUUUUGACAAGUUUUUGAUGUCCUUUUCCACAGUAGUUAUACGAUUAAAGCGAAGGUAAAGAGUGGUGAGAGAAUCCAGCCUAUACACCACUGAAGGAAUUUCUCUCACAACAGAGGAUUGAGCAUCA
B7: chr6:108246082:108246083:-_ENSG00000025796_ENST00000369002|hu_hu|motif|central (ssRNA)
RNA: GGGAGUUCUACAGUCCGACGAUCUGUUUUGGAAACUUUAUAUGCAAGGAAUAAGAACAAUGCCCAUCCUGCAAGCAGAACGGUUUUCUUUACUGUAGGAAUAAUAUUUGGCUGGGGUUUUAAUAACCGUAAACGAUACCACAUCAACAGAGGAUUGAGCAUCA
B8: chr1:163117127:163117128:-_ENSG00000143248_ENST00000313961|hu_mus|hu_hu_hu_mus_False|18_108 (ssRNA)
RNA: GGGAGUUCUACAGUCCGACGAUCUGCGGGUUAUUAUGUAACUCAACUCACAGGGCAACUUUUGGAAGCCUGACCAGAUGACUACUUGAUUAGCUCCUUAUAAAAUUCAGAGCGCACAAAGCGAGGCAGAGAAUCCUUCUCCAUCAACAGAGGAUUGAGCAUCA
B9: 105138127_105138247_1016_CDS_ENSG00000148835_ENST00000369839|human|control|control (ssRNA)
RNA: GGGAGUUCUACAGUCCGACGAUCCUGUUGCUUACUACGCGGCAUCCCAUCAAAGAUGUCAAUGUAGAGGUGCUCCUGAACUAUGUUCCAUAUCUGAUUGUUCUGUUUCUCCUGAAGAUGCCUCUUCAAGAGUUGGUACGAGUCCAACAGAGGAUUGAGCAUCA
B10: chr8:74858975:74858976:-_ENSG00000154582_ENST00000284811|hu_mus|hu_hu_hu_mus_True|18_38 (ssRNA)
RNA: GGGAGUUCUACAGUCCGACGAUCGACCUUGUAGGUAAAAUACAUGCACACUUUUGAUAGCACAUGUGAGGGGAUCUCUCUAAAAUUGACCUCGUUGGUUUCGUUCUCAGCAAACUGACCUGGGCCACUCAACAUAGCCUUUAUCAACAGAGGAUUGAGCAUCA
B11: chr2:156904787:156904788:-_ENSMUSG00000055485_ENSMUST00000069098|mus_hu|FALSE|FALSE (ssRNA)
RNA: GGGAGUUCUACAGUCCGACGAUCCCGGCCGCUGGGGCUGCGGCUGCUCUCGGCCCACCUCGGCCCCGACACCGCGUCCCCGUCCCAAGCCCCGCCGCGCGGUCUCUCCGCUGCUCUGGGCUCGGAGAGUGCGGCCCGACCGCCCAACAGAGGAUUGAGCAUCA
B12: chr18:21054979:21054980:+_ENSG00000101782_ENST00000339486|hu_hu|FALSE|FALSE (ssRNA)
RNA: GGGAGUUCUACAGUCCGACGAUCCUUUACUUCUUUUAAUUUAGGGGCUGGAACUUGAUCAUGGCCAAUAAAAGACAUAACUAAAAUGUGUUUCUUCAGUAGUACAACUGUUGGACAAGGAAUUCCAGCUCUCUGCAUUCUUGCCAACAGAGGAUUGAGCAUCA
B13: chr10:122565287:122565288:-_ENSMUSG00000020124_ENSMUST00000020334|mus_mus|motif|central (ssRNA)
RNA: GGGAGUUCUACAGUCCGACGAUCAAUUUUGGGCACAAUAACUUUGUAUUGCAUAGGUUUAGCAAGUGGAUCCAUUCGGACGGAAUAAACUUCCAAGCUACGUUCUUUUUUCAUAGGCAAUGGAAGAGUCAAGUAACAGAAAGGCAACAGAGGAUUGAGCAUCA
B14: chr3:10015032:10015033:+_ENSMUSG00000027533_ENSMUST00000029046|mus_mus|mus_mus_mus_hu_True|68_108 (ssRNA)
RNA: B3 RNA with U27G, A30G, G51A, G69A, C70G, U75C, U105C
B15: chr5:37680062:37680063:+_ENSMUSG00000029121_ENSMUST00000031004|mus_hu|mus_mus_mus_hu_False|8_98 (ssRNA)
RNA: GGGAGUUCUACAGUCCGACGAUCUUUGGGUGUAGCUGGCACCUCGUACACAGGACCGUCAUACAUGCCCCUGGAAACCCCUUGCAAUCCAAAAACCUUAUUCCUGAUUUUGACGCGCUGGUACAGGUGCUCUGGGAACGCCUUCAACAGAGGAUUGAGCAUCA
B16: chr5:151042278:151042279:-_ENSG00000113140_ENST00000231061|hu_mus|FALSE|FALSE (ssRNA)
RNA: GGGAGUUCUACAGUCCGACGAUCAUGACAGCCAUCUAGAUGUGAAAAAAAUCAAACCAAUUCACCAGUCUCACUUCCUCUACGUUACAACCUUUUCUGUCUUCCUCUUGAGUCUCACUUUCCUGAAACAGCCUCCCAGUGCCUCAACAGAGGAUUGAGCAUCA
B17: chr1:55135153:55135154:-_ENSMUSG00000025980_ENSMUST00000027123|mus_mus|FALSE|FALSE (ssRNA)
RNA: GGGAGUUCUACAGUCCGACGAUCUUCAUUGAUAAGGGCAAAGCACUACUCUAGGAGUUAGAACAUGCCGCCUCCCAUACCCCCUCCCAUGCCACCCAUUGCACCCAUUCCAGGGUCCUUCUCUUCUUUAGGAAUUUCUGUCACCAACAGAGGAUUGAGCAUCA
B18: chr6:52962840:52962841:+_ENSG00000112146_ENST00000323557|hu_mus|FALSE|FALSE (ssRNA)
RNA: GGGAGUUCUACAGUCCGACGAUCACAACAAAAGUGUCCUUAACAACUUCUAAUUUCAAAACAAAGUACCCCAGGAAUCAACUAUCCUUUUAAAUAAAAAAAAUAAUUUAUACUCUUCUUAAAGGAAUUCCAACAACUUAAAGUCAACAGAGGAUUGAGCAUCA
B19: chr9:95040541:95040542:-_ENSG00000196305_ENST00000443024|hu_mus|FALSE|FALSE (ssRNA)
RNA: GGGAGUUCUACAGUCCGACGAUCAAGUAUCUCAUAGUCGCUCUCUUGCUUAUAGAGGGCCGAUAAUCUGGCUUCCGUUAAGAUGAAUAAUUUUCCCCUGGCCACAUCUUUGAUCUUCACAUACUGUAUUUCUGGAUUGACGCACAACAGAGGAUUGAGCAUCA
B20: 89056248_89057110_1325_CDS_ENSMUSG00000029291_ENSMUST00000031229|mouse|control|control (ssRNA)
RNA: GGGAGUUCUACAGUCCGACGAUCAUGUCUGUUGAGUUCUUCUACAUAGUUCUUCUGGUCUAGGAUCGCAGUAAUCUGUCCAUCCCCUUCACUACCUUUACUACUGUUUCCAUCUUUGAGAUACAUCGAAAAAUCUAUAACUCCCAACAGAGGAUUGAGCAUCA
B21: chr4:175231952:175231953:+_ENSG00000164118_ENST00000503780|hu_mus|motif|central (ssRNA)
RNA: GGGAGUUCUACAGUCCGACGAUCGGGUACAAAGUCCACAUCACUAAUUGACUCACAGUCUUGACUUGCCACAUUACGCUCGGCAGAUUCACUCUUUUUGGACAACAGCAUCUCCGUUUCUAGAAGAGUGACACGACUUAGAAGCAACAGAGGAUUGAGCAUCA
B22: chr4:41496568:41496569:+_ENSG00000064042_ENST00000508501|hu_hu|motif|central (ssRNA)
RNA: GGGAGUUCUACAGUCCGACGAUCUUUAACAAGUCCUGGCUUUAUAGCAUUCAGCAACUCGCAGAGGAGGAUUCCAUUUUCGGAACCUGUCCGAAAAUCUUUAUCACCAAAACUUCUGCCAGUUACUUGCUCAAUCCACUUCUGCAACAGAGGAUUGAGCAUCA

Positions count from the first letter of the chain named. This is one part of the list.

The assay deals with T1, UNK ZnF1-3. In words: nsRBNS (natural sequence RNA bind-n-seq); RBNS binding buffer (assumed for nsRBNS): 25 mM Tris pH 7.5, 150 mM KCl, 3 mM MgCl2, 0.01% Triton X-100, 500 ug/ml BSA, 20 U/ml SUPERase-In, 4 C; UNK is unkempt and MSI1 is Musashi-1; names of the RNAs are library labels; protein concentration not given here; high values mean tight binding.
Take B1: the binding signal was 0.704 enrichment R. B2 came in with a binding signal of 1.47 enrichment R. The figure for B3 is 0.75 enrichment R; for B4 it is 1.42 enrichment R; for B5 it is 1.06 enrichment R. As to B6, the binding signal turned out to be 0.785 enrichment R. With B7 the figure was 0.611 enrichment R; with B8, 0.904 enrichment R. On to B9, for which the binding signal is 0.455 enrichment R. For B10, the binding signal came out at 0.547 enrichment R. The figure for B11 is 1.68 enrichment R. The figure for B12 is 1 enrichment R; for B13 it is 1.18 enrichment R. For the molecule B14, the binding signal was found to be 0.736 enrichment R.

B15 registered a binding signal of 0.739 enrichment R.

In turn, B16 displayed a binding signal of 1.26 enrichment R. The figure for B17 is 1.01 enrichment R; for B18 it is 2.76 enrichment R. Consider B19, for which the binding signal turned out to be 0.904 enrichment R. As to B20, the binding signal turned out to be 0.736 enrichment R.

For the molecule B21, the binding signal was found to be 0.979 enrichment R. With B22 the figure was 0.437 enrichment R.
